Screen size: about 310,000 compounds; about 14,000 (4.5%) showed an effect of 50% or more. The effect is printed as a negative number. The list shows a part of the results.
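Note: peak tail current of the secondary pulse compared with the same well before compound.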

For this experiment, the target named is human ether-à-go-go-related gene (hERG) potassium channel (human, UniProt Q12809). The experiment in a line: primary screen, population patch clamp on CHO cells stably expressing hERG.
Chain of human ether-à-go-go-related gene (hERG) potassium channel (Q12809 whole entry, looked up): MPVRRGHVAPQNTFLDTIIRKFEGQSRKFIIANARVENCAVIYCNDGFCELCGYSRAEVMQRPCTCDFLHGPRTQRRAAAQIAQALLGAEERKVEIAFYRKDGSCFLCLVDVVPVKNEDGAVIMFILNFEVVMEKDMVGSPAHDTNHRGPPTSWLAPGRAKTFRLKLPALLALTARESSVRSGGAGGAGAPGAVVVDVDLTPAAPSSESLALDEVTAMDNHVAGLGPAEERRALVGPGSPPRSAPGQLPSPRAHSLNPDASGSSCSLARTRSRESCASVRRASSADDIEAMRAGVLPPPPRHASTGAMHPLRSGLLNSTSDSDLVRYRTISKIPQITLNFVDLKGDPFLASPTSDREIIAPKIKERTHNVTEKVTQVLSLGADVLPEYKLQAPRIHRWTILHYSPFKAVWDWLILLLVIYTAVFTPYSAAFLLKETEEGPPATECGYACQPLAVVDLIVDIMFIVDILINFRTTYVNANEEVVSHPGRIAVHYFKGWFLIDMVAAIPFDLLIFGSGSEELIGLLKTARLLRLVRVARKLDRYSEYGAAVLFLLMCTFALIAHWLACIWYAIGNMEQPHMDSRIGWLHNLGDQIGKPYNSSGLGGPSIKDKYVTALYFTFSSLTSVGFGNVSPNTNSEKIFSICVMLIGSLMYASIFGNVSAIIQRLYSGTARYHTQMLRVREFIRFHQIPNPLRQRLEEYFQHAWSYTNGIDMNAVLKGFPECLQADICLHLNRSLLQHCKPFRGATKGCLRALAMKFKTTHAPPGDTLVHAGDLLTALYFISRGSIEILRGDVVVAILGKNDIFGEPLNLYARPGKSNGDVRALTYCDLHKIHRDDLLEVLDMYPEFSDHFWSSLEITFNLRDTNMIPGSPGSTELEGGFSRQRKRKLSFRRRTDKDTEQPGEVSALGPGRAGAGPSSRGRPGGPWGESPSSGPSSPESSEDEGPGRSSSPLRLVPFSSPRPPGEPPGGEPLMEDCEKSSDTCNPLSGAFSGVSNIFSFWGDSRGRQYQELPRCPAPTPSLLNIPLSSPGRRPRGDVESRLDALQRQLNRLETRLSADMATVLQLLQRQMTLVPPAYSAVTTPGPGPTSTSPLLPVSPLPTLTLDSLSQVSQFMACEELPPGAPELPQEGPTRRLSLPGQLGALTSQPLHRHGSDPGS
`Cc1ccc(CCNC(=O)C2CCCN(C(=O)c3cc4sccc4n3C)C2)cc1` (centres unmarked): the “hERG current change (%, negative = inhibition) at 10uM” value is listed as -15.4%.
In the case of `CC(C)OC(=O)C(C#N)c1nc2ccccc2nc1N1CCN(Cc2ccccc2)CC1` (centres unmarked) it was -18.6%; in that of `CC1CCCC(C)N1C(=O)c1cc(-c2ccco2)on1` (centres unmarked), -3.06%; in that of `Cn1c(N)c(C(=O)COC(=O)CNC(=O)c2ccccc2Cl)c(=O)n(C)c1=O`, -14.7%.
`Cc1cc2c(cc1S(=O)(=O)NCc1ccccc1)n(C)c(=O)c(=O)n2C`: the “hERG current change (%, negative = inhibition) at 10uM” value was -10.9%.
Turning to `Cl.O=C(NCCN1CCOCC1)c1cn(-c2ccccc2)nc1-c1cccs1`, the “hERG current change (%, negative = inhibition) at 10uM” value was -25.6%.
For `Cc1cccc(C)c1NC(=O)CNC(=O)c1ccc2ccccc2n1`, the “hERG current change (%, negative = inhibition) at 10uM” value was -2.51%.
On to `O=c1c2nnn(-c3ccc(Cl)cc3)c2ncn1Cc1ccccn1`, for which the “hERG current change (%, negative = inhibition) at 10uM” value is given as -6.29%.
Take `Cc1cc(C)c(NC(=O)CNC(=O)c2cc([N+](=O)[O-])ccc2N2CCOCC2)c(C)c1`: the “hERG current change (%, negative = inhibition) at 10uM” value is on record as -9.25%.
The figure for `COc1ccc(/C=C/c2onc(C)c2S(=O)(=O)N2CCC(C(=O)N3CCC(C)CC3)CC2)cc1` is 15.8%.
In the case of `Cc1occc1C(=O)N1CCN(S(=O)(=O)c2ccc(F)cc2)CC1` it was -11.3%; in that of `O=C1CCc2cc(S(=O)(=O)NCc3ccccc3)cc3c2N1CC3`, -8.97%; in that of `Cc1ccc(NC(=O)NNC(=O)c2cccs2)cc1`, -24.6%.
In the case of `CN(CC(=O)Nc1ccc(N2CCOCC2)cc1)CC(=O)Nc1ccc(N2CCOCC2)cc1` it was 6.39%; in that of `Cc1cc(NS(=O)(=O)c2ccc(NC(=S)NCc3ccccc3)cc2)no1`, 20.2%; in that of `O=C(Nc1ccc(N2CCOCC2)cc1)C1(S(=O)(=O)c2ccccc2)CC1`, 2.77%.
On to `N#Cc1cn(CCOc2ccccc2F)c2ccccc12`, for which the “hERG current change (%, negative = inhibition) at 10uM” value is reported as -6.19%.
In the case of `COc1ccc(CCC(=O)NC(C)C)cc1`, the “hERG current change (%, negative = inhibition) at 10uM” value was -6.2%.
For `COc1ccc(S(=O)(=O)Nc2c(O)c3ccccc3oc2=O)cc1`, the “hERG current change (%, negative = inhibition) at 10uM” value was determined as 18%.
The figure for `CCCn1c(=O)c2c(ncn2C)n(CCC)c1=O` is 3.68%; for `CC(C)c1ccc(C(=O)N(c2ccccn2)C(C)c2ccco2)cc1` (centres unmarked) it is -21.8%.
The figure for `O=C(C(Cl)Cl)N1CCN(Cc2ccc3c(c2)OCO3)CC1` is 12.3%; for `O=C(Nc1ccc(Cl)cc1)OCc1cc(-c2ccccc2)on1` it is 15.7%; for `Cc1ccccc1OCC(=O)NNC(=O)C1CCCCC1C(=O)O` (centres unmarked) it is 8.94%.
The figure for `Cc1ccc(CC(=O)N2CCN(Cc3ccccc3)CC2)cc1` is 4.07%; for `Cc1nnc(SCC(=O)c2ccc(Cl)cc2)s1` it is -9.82%; for `CC(C)OC(=O)CSc1nc2c(cc1C#N)CCCCC2` it is 19.6%.
For the compound `O=[N+]([O-])c1ccc(/C=[N+](\[O-])CCO)o1`, the “hERG current change (%, negative = inhibition) at 10uM” value is listed as 19.4%.
As for `Cc1ccc(C(=O)NC(=S)Nc2cc(C(F)(F)F)ccc2Cl)cc1`, the “hERG current change (%, negative = inhibition) at 10uM” value came to 20.3%.
Take `CCCCNC(=O)C1CC(c2ccc(C(F)(F)F)cc2)=NO1` (centres unmarked): the “hERG current change (%, negative = inhibition) at 10uM” value was found to be 3.73%.
In the case of `CC1CCCCC1NC(=O)c1cn(C)c2ccc(S(=O)(=O)N3CCCC3)cc2c1=O` (centres unmarked) it was -0.37%; in that of `C/C(=N/NC(=O)CN1CCN(Cc2ccccc2Cl)CC1)c1ccncc1`, -65.4%.
The figure for `Cl.N[C@@H](Cc1c[nH]c2ccccc12)c1nnc(SCc2c(F)cccc2Cl)o1` is 1.99%; for `COc1ccc(NC(=O)C2CCCN(CCCc3ccccc3)C2)cc1OCC(C)C.O=C(O)/C=C/C(=O)O` (centres unmarked) it is -52.1%.
In the case of `CC1=NN(C(C#N)c2ccccc2)C(C)(C)C1` (centres unmarked) it was -18.8%.
On to `Cc1ccc(S(=O)(=O)N2CCOCC2)cc1NC(=O)COc1cccc(Oc2ccccc2)c1`, for which the “hERG current change (%, negative = inhibition) at 10uM” value is -10.5%.
In the case of `COC(=O)Cn1nc(-c2ccccc2)n(-c2ccccc2)c1=S` it was -0.945%; in that of `Cc1ccc(N2CCN(C(=O)N3CCCC3)CC2)cc1C`, -7.29%.
In the case of `O=C(Nc1cccc2ccccc12)N1CCCN(c2c(Cl)cncc2Cl)CC1` it was 5.78%; in that of `CC1=Nn2c(nnc2C2CCCCC2)SC1`, -2.36%.
For `COc1ccc(/C=C/C=N/NC(=O)COc2ccc(OC)cc2)cc1`, the “hERG current change (%, negative = inhibition) at 10uM” value is 1.85%.
In the case of `Cc1nc(C)c(C(=O)NNC(=O)c2ccc(Br)cc2)s1`, the “hERG current change (%, negative = inhibition) at 10uM” value was found to be 13.7%.
Take `Cc1cccc(/C(N)=N/OC(=O)c2cccs2)c1`: the “hERG current change (%, negative = inhibition) at 10uM” value amounted to 8.03%.
In the case of `Cc1nc(-c2cccc(S(=O)(=O)N3CCCCC3)c2)cs1` it was -21%; in that of `CCn1c(SCC(=O)N(C(C)C)C(C)C)nnc1-c1cc2ccccc2cc1O`, -8.52%.
Consider `CCOC(=O)c1cc(-c2csc(N/N=C/c3ccccc3Cl)n2)on1`, for which the “hERG current change (%, negative = inhibition) at 10uM” value is reported as 2.19%.
Take `COc1ccc(C(CNC(=O)c2cccc(S(=O)(=O)Nc3cccc(C)c3)c2)N2CCOCC2)cc1` (centres unmarked): the “hERG current change (%, negative = inhibition) at 10uM” value is given as -13.6%.
As for `CCCOc1ccc(-c2c(C(=O)N/N=C(\C)c3cccnc3)nnn2-c2nonc2N)cc1`, the “hERG current change (%, negative = inhibition) at 10uM” value worked out at 21.6%.
In the case of `COC(=O)c1ccc(NC(=O)CSc2nc(=O)cc(N)n2-c2ccccc2)cc1` it was 12.8%; in that of `Cc1c(NC(=O)CSc2nnc(-c3ccncc3)o2)c(=O)n(-c2ccccc2)n1C`, 0.168%; in that of `Cc1cc(C(=O)CSc2nnc(-c3ccccc3)n2Cc2ccc3c(c2)OCO3)c(C)n1C`, 14%.
The figure for `N#Cc1ccccc1NC(=O)c1ccc2c(c1)OCCO2` is -0.635%; for `O=C(Nc1ccccc1)Nc1nnc(-c2ccccc2)s1` it is 7.02%; for `COc1ccc(CCNC(=O)CN2CCN(S(=O)(=O)c3ccc(Cl)cc3)CC2)cc1OC` it is -25%.
For the compound `O=c1[nH]nc(SCc2nnc(-c3cccc(Cl)c3)o2)n1C1CCCCC1`, the “hERG current change (%, negative = inhibition) at 10uM” value turned out to be 14.1%.
On to `COc1ccc(CC(=O)N2CCN(c3ccccc3)CC2)cc1`, for which the “hERG current change (%, negative = inhibition) at 10uM” value stood at 5.41%.

The values above are taken from PMC4336329 (PLoS ONE, 2015).
